The supplement of paper PMC9938546
Counter-ions that a name gives are not always drawn. The list shows a part of the results. Single values are uncertain, as repeats are few or missing.

System: HCT116-GFP
Assay: HCT116-GFP viability (GFP intensity) relative to untreated control, monoculture; higher = less cancer cell killing
Conditions: culture: HCT116-GFP monoculture; 10 µM; 72 h
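Also: viability estimated indirectly by image-based GFP quantification with live-cell imaging of the constitutively GFP-expressing human colorectal cancer line, no immune cells added.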

SMILES | HCT116-GFP viability
CC(=O)OC1CN2CCC1CC2 (stereo not drawn) [Aceclidine Hydrochloride] | 119%
CC(CCc1ccccc1)NC(C)C(O)c1ccc(O)cc1 (stereo not drawn) [Nylidrin] | 95.3%
COc1cccc(C2(O)CCCCC2CN(C)C)c1 (stereo not drawn) [Tramadol hydrochloride] | 112%
CCN[C@@H](C)Cc1cccc(C(F)(F)F)c1 [Dexfenfluramine hydrochloride] | 113%
CC[C@H](C)[C@H]1O[C@]2(C=C[C@@H]1C)C[C@@H]1C[C@@H](C/C=C(\C)[C@@H](O[C@H]3C[C@H](OC)[C@@H](O[C@H]4C[C@H](OC)[C@@H](O)[C@H](C)O4)[C@H](C)O3)[C@@H](C)/C=C/C=C3\CO[C@@H]4[C@H](O)C(C)=C[C@@H](C(=O)O1)[C@]34O)O2.CO[C@H]1C[C@H](O[C@H]2[C@H](C)O[C@@H](O[C@@H]3/C(C)=C/C[C@@H]4C[C@@H](C[C@]5(C=C[C@H](C)[C@@H](C(C)C)O5)O4)OC(=O)[C@@H]4C=C(C)[C@@H](O)[C@H]5OC/C(=C\C=C\[C@@H]3C)[C@]54O)C[C@@H]2OC)O[C@@H](C)[C@@H]1O [Avermectin B1] | 28.4%
C[C@]12CCC(=O)C=C1CC[C@@H]1[C@@H]2C(=O)C[C@]2(C)C(=O)CC[C@@H]12 [Adrenosterone] | 105%
C[N+]1(C)CCOC(O)(c2ccc(-c3ccc(C4(O)C[N+](C)(C)CCO4)cc3)cc2)C1 (stereo not drawn) [Hemicholinium bromide] | 94.1%
CC[C@@H](C(N)=O)N1CCCC1=O [Levetiracetam] | 98.5%
COc1ccc(C(=O)N2CCCC2=O)cc1 [Aniracetam] | 92.8%
Cc1cc(C(C#N)c2ccc(Cl)cc2)c(Cl)cc1NC(=O)c1cc(I)cc(I)c1O (stereo not drawn) [Closantel] | 58.4%
C[C@@H]1C[C@@H]([C@H](O)CC2CC(=O)NC(=O)C2)C(=O)[C@@H](C)C1 [Cycloheximide] | 6.22%
CC[C@@H](CO)NC(=O)[C@@H]1C=C2c3cccc4[nH]cc(c34)C[C@H]2N(C)C1 [Methylergometrine maleate] | 91.2%
O=c1[nH]oc2c1CCNC2 [THIP Hydrochloride] | 114%
CC(N)C(O)c1ccccc1 (stereo not drawn) [Phenylpropanolamine hydrochloride] | 82.3%
O=C(CCCN1CCC2(CC1)C(=O)NCN2c1ccccc1)c1ccc(F)cc1 [Spiperone] | 55.4%
O=[N+]([O-])O[C@H]1CO[C@H]2[C@@H]1OC[C@H]2O[N+](=O)[O-] [Isosorbide dinitrate] | 84.1%
C=C1CC[C@@]2(O)[C@H]3Cc4ccc(O)c5c4[C@@]2(CCN3CC2CC2)[C@H]1O5 [Nalmefene hydrochloride] | 102%
NCC1(CC(=O)O)CCCCC1 [Gabapentin] | 99.3%
CC(O)(CS(=O)(=O)c1ccc(F)cc1)C(=O)Nc1ccc(C#N)c(C(F)(F)F)c1 (stereo not drawn) [Bicalutamide] | 86.5%
CCOC(=O)c1cncn1[C@H](C)c1ccccc1 [Etomidate] | 95.4%
C[C@]12CC[C@H](O)C[C@H]1CC[C@@H]1[C@@H]2CC[C@]2(C)[C@@H](C3=CC(=O)OC3)CC[C@]12O [Digitoxigenin] | 4.06%
CC(C)c1cccc(C(C)C)c1O [Propofol] | 98.7%
Oc1ccc2c3c1O[C@H]1[C@@H](O)CC[C@@]4(O)[C@@H](C2)N(CC2CCC2)CC[C@]314 [Nalbuphine hydrochloride] | 96.5%
CC(=O)O[C@H]1CC[C@@]2(C)C(=CC[C@@H]3[C@@H]2CC[C@]2(C)C(=O)CC[C@@H]32)C1 [Dehydroisoandosterone 3-acetate] | 97.7%
O=C(NCNC(=O)NC1C(=O)NC(=O)N1CO)NC1C(=O)NC(=O)N1CO (stereo not drawn) [Imidurea] | 104%
CN1C[C@H](CNC(=O)OCc2ccccc2)C[C@@H]2c3cccc4c3c(cn4C)C[C@H]21 [Metergoline] | 71.1%

SMILES | HCT116-GFP viability
COc1cc2c(c(OC)c1OC)-c1ccc(OC)c(=O)cc1[C@@H](NC(C)=O)CC2 [Colchicine] | 9.33%
CC[N+]1(C)CCCC(OC(=O)C(O)(c2ccccc2)c2ccccc2)C1 (stereo not drawn) [Pipenzolate bromide] | 115%
c1ccc2c(c1)OCC(C1=NCCN1)O2 (stereo not drawn) [Idazoxan hydrochloride] | 40.3%
CCCCCC[C@H]1C(=O)O[C@H](C)[C@H](NC(=O)c2cccc(NC=O)c2O)C(=O)O[C@@H](C)[C@@H]1OC(=O)CC(C)C [Antimycin A] | 38.6%
O=c1c2ccccc2[se]n1-c1ccccc1 [Ebselen] | 111%
c1ccc2c(c1)Nc1ccccc1S2 [Phenothiazine] | 97%
CC(=O)O[C@H]1C[C@@H]2CC[C@@H]3[C@H](CC[C@@]4(C)[C@H]3C[C@H]([N+]3(C)CCCCC3)[C@@H]4OC(C)=O)[C@@]2(C)C[C@@H]1[N+]1(C)CCCCC1 [Pancuronium bromide] | 47.9%
C=CCN1CC[C@]23c4c5ccc(O)c4O[C@H]2C(=O)CC[C@@]3(O)[C@H]1C5 [Naloxone hydrochloride] | 99.7%
CCCC(C)C1(CC)C(=O)NC(=O)NC1=O (stereo not drawn) [Pentobarbital] | 90.7%
C[C@]12CCC(=O)C=C1C=C[C@@H]1[C@@H]2CC[C@@]2(C)[C@H]1CC[C@@]2(O)CCC(=O)O [Canrenoic acid potassium salt] | 98.5%
C(#CCN1CCCC1)CN1CCCC1 [Tremorine dihydrochloride] | 96.9%
CN1[C@@H]2C[C@@H](OC(=O)[C@H](CO)c3ccccc3)C[C@H]1[C@@H]1O[C@@H]12 [Scopolamine hydrochloride] | 108%
C#C[C@]1(O)CC[C@H]2[C@@H]3CCC4=CC(=O)CCC4=C3C=C[C@@]21CC [Gestrinone] | 74.8%
N[C@@H]1C[C@H]1c1ccccc1 [Tranylcypromine hydrochloride] | 94%
NCC(CC(=O)O)c1ccc(Cl)cc1 (racemic) [Baclofen (R,S)] | 105%
CN[C@@H]1[C@@H](O)[C@@H](O[C@@H]2[C@@H](O)[C@H](O[C@H]3O[C@H](CN)CC[C@H]3N)[C@@H](N)C[C@H]2N)OC[C@]1(C)O.CN[C@@H]1[C@@H](O)[C@@H](O[C@@H]2[C@@H](O)[C@H](O[C@H]3O[C@H]([C@@H](C)N)CC[C@H]3N)[C@@H](N)C[C@H]2N)OC[C@]1(C)O.CN[C@@H]1[C@@H](O)[C@@H](O[C@@H]2[C@@H](O)[C@H](O[C@H]3O[C@H]([C@@H](C)NC)CC[C@H]3N)[C@@H](N)C[C@H]2N)OC[C@]1(C)O [Gentamicine sulfate] | 113%
O=C1CC[C@@]2(O)[C@H]3Cc4ccc(O)c5c4[C@@]2(CCN3CC2CC2)[C@H]1O5 [Naltrexone hydrochloride dihydrate] | 114%
CN1CCC2(C)c3cc(O)ccc3N(C)C12 (single isomer, unassigned; (-)) [(-)-Eseroline fumarate salt] | 83%
CC(NC(C)(C)C)C(=O)c1cccc(Cl)c1 (stereo not drawn) [Bupropion hydrochloride] | 107%
NCCCNCCSP(=O)(O)O [Amifostine] | 87%
CC1OC(OC2/C=C/C=C/C=C/C=C/CC/C=C/C=C/[C@H](C)[C@@H](O)[C@@H](C)[C@H](C)OC(=O)CC(O)CC(O)CC(O)CCC(O)C(O)C[C@]3(O)CC(O)C(C(=O)O)C(C2)O3)C(O)C(N)C1O (stereo partly drawn) [Nystatine] | 93.2%
O=c1[nH]c2ccccc2n1C1CCN(CCCC(c2ccc(F)cc2)c2ccc(F)cc2)CC1 [Pimozide] | 41%
C#CCN(C)[C@H](C)Cc1ccccc1 [Selegiline hydrochloride] | 106%
C[C@@H]1O[C@@H](O[C@@H]2C=C3CC[C@@H]4[C@H](CC[C@]5(C)[C@@H](c6ccc(=O)oc6)CC[C@]45O)[C@@]3(C)CC2)[C@H](O)[C@H](O)[C@H]1O [Proscillaridin A] | 3.85%
CN(C)C(=O)Oc1ccc[n+](C)c1 [Pyridostigmine iodide] | 75.6%
C[C@]12CC[C@@H](O)C[C@H]1CC[C@@H]1[C@@H]2CC[C@]2(C)C(=O)CC[C@@H]12 [3-alpha-Hydroxy-5-beta-androstan-17-one] | 103%

SMILES | HCT116-GFP viability
COc1ccc(C(CN(C)C)C2(O)CCCCC2)cc1 (stereo not drawn) [Venlafaxine] | 102%
CNC(=O)Oc1ccc2c(c1)[C@]1(C)CCN(C)[C@@H]1N2C [Eserine hemisulfate salt] | 81.3%
CN(C)C(=O)Oc1cccc([N+](C)(C)C)c1 [Neostigmine bromide] | 95.3%
CC(C)(N)Cc1ccccc1 [Phentermine hydrochloride] | 88.4%
CCNCC(O)c1cccc(O)c1 (stereo not drawn) [Etilefrine hydrochloride] | 90.3%
CCC1=C[C@H]2CN3CCc4c([nH]c5ccccc45)[C@](C(=O)OC)(C2)[C@H]13 [Catharanthine] | 99.7%
CC(C)C[C@H]1C(=O)N2CCC[C@H]2[C@]2(O)O[C@](NC(=O)[C@@H]3C=C4c5cccc6[nH]c(Br)c(c56)C[C@H]4N(C)C3)(C(C)C)C(=O)N12 [Bromocryptine mesylate] | 57.6%
CN1[C@@H]2CC[C@H]1C[C@@H](OC(=O)C(CO)c1ccccc1)C2 (stereo partly drawn) [Atropine sulfate monohydrate] | 92.1%
C[C@]12CCC(=O)C(O)=C1CC[C@@H]1[C@@H]2CC[C@]2(C)C(=O)CC[C@@H]12 [Formestane] | 109%
CNC(C)(C)Cc1ccccc1 [Mephentermine hemisulfate] | 144%
O=P1(N(CCCl)CCCl)NCCCO1 (stereo not drawn) [Cyclophosphamide] | 101%
C[C@]12COC(=O)C[C@@H]1CC[C@@H]1[C@@H]2CC[C@@]2(C)[C@H]1CC[C@]2(C)O [Oxandrolone] | 96.9%
CN1C(=O)CCS(=O)(=O)C1c1ccc(Cl)cc1 (stereo not drawn) [Chlormezanone] | 98.5%
C[C@]12C/C(=C/O)C(=O)C[C@@H]1CC[C@@H]1[C@@H]2CC[C@@]2(C)[C@H]1CC[C@]2(C)O [Oxymetholone] | 94.9%
CC(=O)[C@H]1CC[C@H]2[C@@H]3CC[C@H]4C[C@H](O)CC[C@]4(C)[C@H]3C(=O)C[C@]12C [Alfaxalone] | 94.8%
C=C1C[C@@H]2[C@H](CC[C@]3(C)C(=O)CC[C@@H]23)[C@@]2(C)C=CC(=O)C=C12 [Exemestane] | 84.4%
CCCC(C)(COC(N)=O)COC(=O)NC(C)C (stereo not drawn) [Carisoprodol] | 89%
CCC1(C)CC(=O)NC(=O)C1 [Bemegride] | 75.4%
C[N+]1(C)CCCC(OC(=O)C(O)(c2ccccc2)c2ccccc2)C1 (stereo not drawn) [Mepenzolate bromide] | 91.9%
OC(c1ccccc1)(c1ccccc1)C1CCNCC1 [Azacyclonol] | 91%
NC(=O)OCCCc1ccccc1 [Phenprobamate] | 86.6%
O=C(CCCN1CCC(n2c(=O)[nH]c3ccccc32)CC1)c1ccc(F)cc1 [Benperidol] | 74.7%
C=CCC1(CC(C)C)C(=O)NC(=O)NC1=O [Butalbital] | 99.8%
C[C@@H]1CN([C@H]2CC[C@](C#N)(c3ccc(F)cc3)CC2)CC[C@]1(C(=O)O)c1ccccc1 [Levocabastine hydrochloride] | 93.5%
COc1ccc(OC)c(C(O)C(C)N)c1 (stereo not drawn) [Methoxamine hydrochloride] | 92.4%
CCC(=O)O[C@H]1CC[C@H]2[C@@H]3CCC4=CC(=O)CC[C@]4(C)[C@H]3CC[C@]12C [Testosterone propionate] | 114%
